{"sequences": {"note": "By UniProt entry, the sequences of proteins in these tests, tags left out.", "UniProt Q8R4B8": "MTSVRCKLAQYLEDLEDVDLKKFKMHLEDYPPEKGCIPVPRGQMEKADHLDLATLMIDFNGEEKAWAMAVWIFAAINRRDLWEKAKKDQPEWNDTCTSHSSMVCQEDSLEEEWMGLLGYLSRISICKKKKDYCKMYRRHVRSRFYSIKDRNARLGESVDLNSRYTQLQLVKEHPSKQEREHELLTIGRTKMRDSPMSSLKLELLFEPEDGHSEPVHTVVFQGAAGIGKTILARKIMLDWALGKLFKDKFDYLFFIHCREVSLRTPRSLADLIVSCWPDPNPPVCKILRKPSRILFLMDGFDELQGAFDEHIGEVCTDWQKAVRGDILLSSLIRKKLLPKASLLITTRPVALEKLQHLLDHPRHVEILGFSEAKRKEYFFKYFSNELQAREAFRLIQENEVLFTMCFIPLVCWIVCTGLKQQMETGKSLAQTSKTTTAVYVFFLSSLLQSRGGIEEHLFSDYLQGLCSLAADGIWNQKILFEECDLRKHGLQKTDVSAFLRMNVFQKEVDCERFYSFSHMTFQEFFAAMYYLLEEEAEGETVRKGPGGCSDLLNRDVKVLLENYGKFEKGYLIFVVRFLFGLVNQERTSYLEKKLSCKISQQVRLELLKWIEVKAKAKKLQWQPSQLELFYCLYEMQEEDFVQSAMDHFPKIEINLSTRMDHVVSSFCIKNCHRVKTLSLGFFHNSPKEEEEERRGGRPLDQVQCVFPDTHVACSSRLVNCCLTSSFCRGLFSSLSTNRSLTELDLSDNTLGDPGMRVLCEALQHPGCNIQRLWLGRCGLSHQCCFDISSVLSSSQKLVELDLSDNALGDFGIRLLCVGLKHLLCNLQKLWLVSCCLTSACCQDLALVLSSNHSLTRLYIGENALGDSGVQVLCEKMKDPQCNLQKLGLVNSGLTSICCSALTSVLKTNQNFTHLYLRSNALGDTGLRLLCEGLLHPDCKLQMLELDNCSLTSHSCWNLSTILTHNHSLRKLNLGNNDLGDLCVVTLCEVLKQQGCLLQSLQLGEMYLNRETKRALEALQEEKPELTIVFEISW", "UniProt P47746": "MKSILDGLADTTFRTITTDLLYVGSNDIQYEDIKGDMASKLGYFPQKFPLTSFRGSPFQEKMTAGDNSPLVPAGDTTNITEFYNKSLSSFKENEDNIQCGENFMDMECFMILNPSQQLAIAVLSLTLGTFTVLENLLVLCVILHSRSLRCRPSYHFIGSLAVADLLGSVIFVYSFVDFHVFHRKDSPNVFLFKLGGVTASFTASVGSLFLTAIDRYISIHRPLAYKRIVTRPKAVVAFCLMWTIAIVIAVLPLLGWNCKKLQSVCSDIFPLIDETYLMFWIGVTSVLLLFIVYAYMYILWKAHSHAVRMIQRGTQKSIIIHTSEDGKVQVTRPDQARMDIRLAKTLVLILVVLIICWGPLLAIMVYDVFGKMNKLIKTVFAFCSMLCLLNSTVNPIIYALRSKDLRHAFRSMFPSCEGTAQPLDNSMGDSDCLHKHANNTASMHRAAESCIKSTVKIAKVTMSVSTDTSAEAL"}, "source": "paper PMC9225989", "about": "(Signal Transduction and Targeted Therapy, 2022)", "assay_in_all_cases": "co-IP; HL-1 cells co-transfected with the Flag-tagged Cb1r plasmid and one of the Myc-Nlrp3, His-Gsdmd, HA-Casp1 or GST-Asc plasmids; precipitation with anti-Flag antibody, and the reverse", "key": {"[1]": {"molecular_target": "T1, His-tagged GSDMD (expressed in HL-1 cells) (UniProt Q9D8T2)", "T1 sequence": "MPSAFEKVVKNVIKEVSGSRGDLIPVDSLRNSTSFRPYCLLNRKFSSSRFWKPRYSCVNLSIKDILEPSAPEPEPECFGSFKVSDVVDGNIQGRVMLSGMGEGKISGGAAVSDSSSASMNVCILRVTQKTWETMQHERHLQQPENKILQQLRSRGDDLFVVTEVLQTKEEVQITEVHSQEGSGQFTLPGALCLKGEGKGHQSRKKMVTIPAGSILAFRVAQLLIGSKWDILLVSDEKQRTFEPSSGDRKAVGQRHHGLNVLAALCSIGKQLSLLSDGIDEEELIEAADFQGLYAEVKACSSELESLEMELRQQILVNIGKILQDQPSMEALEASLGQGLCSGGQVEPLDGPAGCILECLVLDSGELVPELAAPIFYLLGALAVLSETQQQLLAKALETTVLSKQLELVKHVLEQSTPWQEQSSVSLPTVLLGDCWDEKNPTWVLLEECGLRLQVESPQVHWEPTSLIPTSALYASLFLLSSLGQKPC"}, "[2]": {"molecular_target": "T2, GST-tagged ASC (expressed in HL-1 cells) (UniProt Q9EPB4)", "T2 sequence": "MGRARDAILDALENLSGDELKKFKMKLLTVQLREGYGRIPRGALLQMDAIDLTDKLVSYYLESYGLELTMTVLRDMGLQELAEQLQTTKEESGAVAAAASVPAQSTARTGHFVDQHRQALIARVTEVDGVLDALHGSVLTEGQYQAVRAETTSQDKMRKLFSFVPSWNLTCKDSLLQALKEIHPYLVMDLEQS"}, "[3]": {"molecular_target": "Myc-tagged NLRP3 (expressed in HL-1 cells) (UniProt Q8R4B8)"}, "[4]": {"molecular_target": "T3, HA-tagged Casp1 (expressed in HL-1 cells) (UniProt P29452)", "T3 sequence": "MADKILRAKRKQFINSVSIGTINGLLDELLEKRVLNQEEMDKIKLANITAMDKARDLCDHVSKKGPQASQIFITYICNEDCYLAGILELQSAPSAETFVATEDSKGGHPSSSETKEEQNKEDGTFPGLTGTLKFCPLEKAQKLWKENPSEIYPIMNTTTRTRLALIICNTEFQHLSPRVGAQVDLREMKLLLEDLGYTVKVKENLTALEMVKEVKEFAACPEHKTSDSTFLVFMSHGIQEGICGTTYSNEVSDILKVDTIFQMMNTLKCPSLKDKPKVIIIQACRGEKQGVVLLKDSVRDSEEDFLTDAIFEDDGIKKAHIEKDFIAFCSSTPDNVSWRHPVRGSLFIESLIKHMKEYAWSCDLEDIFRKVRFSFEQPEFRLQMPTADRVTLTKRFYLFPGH"}}, "note": "These are yes or no findings as the source states them, for the method shown. In cells and extracts the contact can be indirect. Some results given as binding are weak or reduced against the parent protein; the word gives no strength. For some of these results: Where a sequence is shown, tags or fusion partners need not be part of it.", "data": [{"substance": "Flag-tagged CB1R, full length (CB1R-FL, 1-473 amino acids) (from UniProt P47746 1-473) (receptor)", "values": [{"measurement": "binding", "setting": "[1]", "result": "binds"}, {"measurement": "binding", "setting": "[2]", "result": "no binding"}, {"measurement": "binding", "setting": "[3]", "result": "binds"}, {"measurement": "binding", "setting": "[4]", "result": "binds"}]}]}
